The record followed here is ChEMBL document CHEMBL4888484, “Replenishing the malaria drug discovery pipeline: Screening and hit evaluation of the MMV Hit Generation Library 1 (HGL1) against asexual blood stage Plasmodium falciparum ,using a nano luciferase reporter read-out” (2022).

Among all 150,000 compounds or so, about 540 (0.36%) showed an effect of 50% or more. The list shows a part of the results.

The test system of this assay is Plasmodium falciparum. The assay is described as follows: Primary screen in NF54 nanoGlo assay, in single point, at 2uM, 72h; a lower Z score goes with more inhibition. The conditions noted are these: timepoint 72 hour. Type of assay: functional, Erythrocyte.
`CC1CN(C(=O)NC2CCCC2C)CC(C)O1` (stereo unspecified): the “% Inhibition” value is listed as -7% and the Z score is 0.98.
In the case of `Nc1c2c(-c3cccc(Cl)c3)nc(NCc3ccccn3)nc2nn1-c1ccc(Cl)cc1`, the “% Inhibition” value is recorded as 5% and the Z score is -0.7.
For `CN(C)c1nsc(NCC2(Cn3cccn3)CC2)n1`, in that order: 19% and -2.43.
Take `COc1ccc(C)c2sc(N(Cc3ccccn3)C(=O)C3CCCCC3)nc12`: the “% Inhibition” value is -15% and the Z score was determined as 1.97.
For `Cc1nc(-n2cnnc2)ccc1-c1ccc(C(N)=O)cc1`, in that order: -8% and 1.26.
In the same order, the values of `CC1=NN(c2ccc(C(=O)NC[C@H]3CN(CC(C)C)C(=O)CO3)cc2)C(=O)C1` are -2% and 0.24.
On to `O=C(CN1C(=O)NC2(CCCCCCC2)C1=O)NCc1ccc(Cl)cc1`, for which the “% Inhibition” value came to 0% and the Z score was 0.06.
Take `O=C(Cc1scnc1-c1cccs1)NCc1ccccc1F`: the “% Inhibition” value was -3% and the Z score stood at 0.36.
As for `CN(CC1CC1)S(=O)(=O)NCC1CCCCC1NS(C)(=O)=O` (stereo unspecified), the “% Inhibition” value is -8% and the Z score worked out at 1.27.
In the same order, the values of `O=C(CN1Cc2ccccc2O[C@H](c2ccsc2)C1)N1CCN(c2ncccn2)CC1` are -1% and 0.19.
Turning to `N#Cc1ccc(OC(=O)CCc2ccc(F)cc2)cc1`, the “% Inhibition” value is reported as -4% and the Z score worked out at 0.52.
In the same order, the values of `COc1ccc(OC)c(-n2cc(C(=O)Nc3ccc(OC)nc3)c3ccccc3c2=O)c1` are -6% and 0.89.
For `O=C1Nc2ccccc2CC[C@@H]1N1CCOCC2(CC2)C1`, in that order: -9% and 1.56.
In the same order, the values of `Cc1ccc(C(=O)N2CC[C@H](Oc3cc(N(C)C)ncn3)C2)s1` are -17% and 2.17.
As to `O=S1(=O)CC[C@H](CN2CCCC3(CCCCC3)CC2)C1`, the “% Inhibition” value was -4% and the Z score is 0.73.
In the same order, the values of `COc1ccc2[nH]c(CN(C)Cc3nncn3C(C)C)c(C)c2c1` are -19% and 2.07.
For `CC(C)(C)S(=O)(=O)[C@H]1CCN(C(=O)CCc2cccc(Oc3ccc(F)cc3)c2)C1`, in that order: -7% and 1.23.
Turning to `CCc1noc(CCNc2ncc(Cl)cc2F)n1`, the “% Inhibition” value is given as -7% and the Z score is recorded as 0.98.
For `O=C(NC1CC1)c1csc(Nc2ccc3c(c2)OCO3)n1`, in that order: -10% and 1.3.
For `COC(=O)C1CC(c2ccccc2)CN(Cc2nc(N(C)C)no2)C1` (stereo unspecified), in that order: 0% and -0.05.
For `Cc1cccc(C)c1[C@H](C)NCc1nc(C2CC2)nn1C`, in that order: 9% and -1.06.
In the case of `CC(C)CN1CCN(Cc2cccc(O)c2)[C@H]2CS(=O)(=O)C[C@H]21`, the “% Inhibition” value is -15% and the Z score came out at 1.41.
In the same order, the values of `O=C(NCc1cccnc1N1CCCCCCC1)[C@H]1CCCNCC1` are -11% and 1.04.
For `CCNc1nc(C)cc(NCCNC(=O)c2cccc(Cl)c2)n1`, in that order: 23% and -3.44.
For the compound `COCCNC(=O)[C@@]1(OCc2ccc(F)cc2)CC(OCc2ccccc2C#N)[C@@H]2OC(C)(C)O[C@@H]2C1` (stereo partly specified), the “% Inhibition” value is listed as -19% and the Z score was 1.83.
For `COC(=O)N1CCCC(NC(C)c2ccccn2)C1` (stereo unspecified), in that order: -10% and 1.12.
As to `S=c1scnn1CN1CCC[C@H](c2nc3ccccc3s2)C1`, the “% Inhibition” value was determined as 3% and the Z score is reported as -0.35.
For `CC[C@H]1C(=O)NCCN1C(=O)c1cc(C)n[nH]1`, in that order: 33% and -1.17.
As to `CNC(=O)CCOC(=O)C1CCCCCC1`, the “% Inhibition” value is -4% and the Z score came to 0.49.
Consider `Cn1nc2n(c1=O)CCN(C(=O)c1cccc(C#N)c1)CC2`, for which the “% Inhibition” value was -9% and the Z score is 1.06.
Take `O=C(NCc1cccc(COC2CCOCC2)c1)N1CCO[C@H](C(F)F)C1`: the “% Inhibition” value is recorded as -9% and the Z score stood at 1.19.
Turning to `CON(C(=O)c1cccc2nn[nH]c12)C1CCCC1`, the “% Inhibition” value is recorded as 6% and the Z score was -0.99.
For `COC1(c2noc(C3(c4ccccc4)CC3)n2)CCC1`, in that order: -6% and 0.8.
In the same order, the values of `COCCNCC(=O)N1CC(c2ccccc2Cl)OCC1C` (stereo unspecified) are -12% and 1.37.
`Cc1cnn(C2CN(Cc3ccc(-n4ccnc4)cc3)C2)c1`: the “% Inhibition” value is on record as -5% and the Z score is reported as 0.48.
In the same order, the values of `CC1=C(C)CN(c2ccc(C#N)cn2)CC1` are -6% and 0.98.
For `CCC1CCCCN1C(=O)CN1CCCC1c1nnc2ccccn12` (stereo unspecified), in that order: -8% and 1.02.
For `CC1=C(c2ccccc2)[C@H]1C(=O)NCC1CCN(C(=O)c2cc(C3CC3)[nH]n2)CC1`, in that order: 1% and -0.19.
In the case of `O=C(Nc1cccc(-c2cc3cc(F)ccc3[nH]2)c1)NC1CCCC1`, the “% Inhibition” value is on record as 1% and the Z score is recorded as -0.16.
In the same order, the values of `CC1(C(=O)O)CCN(C(=O)C2CCCOC2c2ccccc2)C1` (stereo unspecified) are -5% and 0.73.
For `O=C(Cn1cnnn1)Nc1ccccc1N1CCc2ccccc2C1`, in that order: -39% and 4.53.
For `C[C@@H](c1ccc(-n2cncn2)cc1)n1ccnc1-c1cc2n(n1)CCCNC2`, in that order: -1% and 0.23.
In the case of `Cc1cc(NCC2(CN3CCCC3)CC2)nc(C)c1C#N`, the “% Inhibition” value is recorded as 7% and the Z score is recorded as -1.35.

As a reminder, the % Inhibition is the relative decrease from the control value, in per cent.
